# From PubChem BioAssay AID757 (NMMLSC, 2007)
# Screen size: about 190,000 compounds; about 520 (0.27%) were called active. The inconclusive results got no clear call from the source; some entries with a clear call stand among them for comparison.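 The calls were made as follows: active = GTP binding activity at least 20 points away from the 100% control level, either lower or higher; inconclusive = compound flagged as likely green fluorescent, judged across all proteins; inactive = the rest.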
# Biological target: Ras-related C3 botulinum toxin substrate 1 (Homo sapiens) (UniProt P63000)
# Assay: wildtype Rac1 GTP binding modulators, primary screen, biochemical, GST-Rac1 beads, flow cytometry, multiplex (AID 757)
# Settings: fluorescent GTP binding, at 10 µM, actives lie on both sides, 0 = cold GTP competed, 100 = untreated
row,SMILES,GTP binding activity (% of control)
1,CCOC(=O)C1=C(N)OC2=C(C(=O)CCC2)C1c1ccco1 (stereo not drawn),inactive: 94%
2,CC(C(=O)NC(C)(C)C)N1C(=O)c2cccc3cccc(c23)C1=O (stereo not drawn),inconclusive: 96%
3,CN(Cc1ccccc1)c1ccc(C(=O)O)cc1[N+](=O)[O-],inactive: 104%
4,O=S1(=O)CCC(NC(=S)N2CCOCC2)C1 (stereo not drawn),inactive: 105%
5,N#Cc1c(N)nc2c3c(sc(=N)c2c1N)NC(=O)CC3c1ccccc1 (stereo not drawn),inconclusive: 85%
6,CO/N=C/NC(=O)NOCc1ncc(C(F)(F)F)cc1Cl,active: 123% [activator]
7,COc1ccc(/C=C/C(=O)C2C(=O)C=C(C)OC2=O)cc1O (stereo not drawn),inconclusive: 95%
8,CN1CCC2(CC1)C1CN(C)CC=C1C(C#N)=C(N)C2(C#N)C#N (stereo not drawn),inconclusive: 95%
9,O=C(NCc1ccccc1Cl)C(=O)NCC(c1ccco1)N1CCOCC1 (stereo not drawn),inactive: 98%
10,O=c1nc(NCc2ccco2)sc2ncccc12,inconclusive: 95%
11,NC(=O)c1ccccc1NC(=S)NC(=O)CCc1ccccc1,inconclusive: 106%
12,N#CCCN1CCN(S(=O)(=O)c2cc(Cl)ccc2Cl)CC1,inconclusive: 93%
13,CCOC(=O)C1CCCN(C(=O)c2cccc(NC(=O)C(CC)CC)c2)C1 (stereo not drawn),inactive: 97%
14,CN1CCN(C(=O)/C=C\C(=O)O)CC1,inactive: 104%
15,C/C(=N/NC(=O)c1ccoc1C)c1cccc(NC(=O)C2CC2)c1,inconclusive: 106%
16,O=c1c2cc(NC(=S)NC3CC3)ccc2nc2n1CCCCC2,inconclusive: 93%
17,NC(=O)CSc1cn(Cc2ccccc2)c2ccccc12,inactive: 94%
18,Cc1cc(NC(=O)CSc2nnc3ccccn23)no1,inactive: 97%
19,COc1cc(/C=C/C(=O)OCC(=O)NCCN2C(=O)CSC2=O)ccc1OC(F)F,inactive: 103%
20,CC1=C(C(=O)OCc2ccc(C)cc2)C(c2ccc(O)c([N+](=O)[O-])c2)NC(=O)N1 (stereo not drawn),inconclusive: 91%
21,Cc1cc(=O)n2nc(N3CCCC3C(=O)NCCCN3CC(C)CC(C)C3)sc2n1 (stereo not drawn),inconclusive: 108%
22,CCCN1C(=O)C(O)(C2COC(C)(C)CC2=O)c2ccccc21 (stereo not drawn),inconclusive: 102%
23,CCOc1cc(C#N)c(NC(=O)Cn2nnc3ccccc32)cc1OCC,inconclusive: 100%
24,O=C(CSc1nnc2c3ccccc3c3ccccc3c2n1)Nc1ccccc1,inconclusive: 92%

row,SMILES,GTP binding activity (% of control)
1,COc1cccc(Nc2ccccc2C(=O)O)c1,active: 138% [activator]
2,Cc1ccc(S(=O)(=O)N2CCCC(C(=O)Nc3ccc(C(=O)O)cc3)C2)cc1Cl (stereo not drawn),inactive: 94%
3,COc1ccc(CNc2nc3nc(C)cc(C)n3n2)cc1,inconclusive: 105%
4,Cc1csc(NC(=O)C2CCN(S(=O)(=O)c3cccs3)CC2)n1,inconclusive: 92%
5,O=C(Nc1ccccc1C(=O)O)/C(=C/c1ccc([N+](=O)[O-])cc1)NC(=O)c1ccc(Br)o1,inactive: 91%
6,CC(C)NC(=O)COc1nncc2ccccc12,inactive: 97%
7,COc1ccc(OC)c(NC(=O)CSc2ccc3nnc(-c4cccnc4)n3n2)c1,inactive: 99%
8,CCc1ccc2[nH]c(=O)c(CN(Cc3ccc4c(c3)OCO4)C(=O)c3ccco3)cc2c1,inconclusive: 89%
9,CC1CCCCN1C(=O)CSc1nnc(CSc2ncccn2)n1C (stereo not drawn),inactive: 101%
10,CS(=O)(=O)N(CC(=O)NCCSc1ccccn1)c1ccc(F)cc1,inconclusive: 97%
11,O=S1(=O)N=C(N(CCO)/N=C/c2ccncc2)c2ccccc21,active: 56%
12,O=C(CSc1nnnn1-c1ccccc1)Nc1nsc(-c2ccc(Cl)cc2)n1,inconclusive: 111%
13,Cc1ccc(N/N=C2/CCCNC2=O)cc1,inconclusive: 97%
14,COc1ccccc1NC(=O)c1c(Nc2ccccc2F)sc(C(=O)Nc2cccc(Cl)c2)c1N,inactive: 103%
15,COc1ccc(N(CC(=O)N/N=C/c2cc(Br)c(C)o2)S(=O)(=O)c2ccc(NC(C)=O)cc2)cc1,inconclusive: 91%
16,CCn1cnc2sc(C)c(C)c2c1=O,inconclusive: 101%
17,O=C(NC12CC3CC(CC(C3)C1)C2)N1CCN(C(=O)C2CCCO2)CC1 (stereo not drawn),inconclusive: 105%
18,O=C(c1n[nH]c(=O)c2ccccc12)N1CCN(C2c3ccccc3-c3ccccc32)CC1,inconclusive: 36%
19,Cc1ccc(-c2nc3ccccc3s2)cc1NC(=S)NC(=O)c1cccc2ccccc12,inconclusive: 93%
20,Cc1ccc(Cn2c(=N)c(C(=O)NCc3ccco3)cc3c(=O)n4ccccc4nc32)cc1,inactive: 101%
21,CCCC/C(O)=C1\C(=O)CC(C)(C)CC1=Nc1ccc(N)cc1,inactive: 89%
22,O=C(COC(=O)c1cccc(C(=O)OCC(=O)NC2CC2)n1)NC1CC1,inactive: 99%
23,COC(=O)C1CC(c2ccc(Cl)cc2)=NO1 (stereo not drawn),inactive: 102%
24,COCCNC(=O)NC(=O)COC(=O)C1(c2ccc(Cl)cc2)CC1,inconclusive: 94%
